These results are taken from PubChem BioAssay AID463173 (ICCB-Longwood Screening Facility, Harvard Medical School, 2010).

Screen size: about 52,000 compounds; about 4,300 (8.3%) were called active. Cut-off read from the data, not from the text of the source: active = survival mostly below about 52% (no sharp cut-off); inactive = mostly above about 56%. The list shows a part of the results.

The test system of this test is DeltatarO mutant. Kind of test: S. aureus survival, RN4220 and DeltatarO strains – OD600, teichoic acid synthesis inhibitors, primary screen (AID 463173). The conditions noted are these: S. aureus RN4220 wild type/DeltatarO growth, OD600, 18 h, hits give low values, screened at 18.75 µg/mL (by protocol).
Take `Cc1cc(C)cc(C(=O)NCCc2sc(-c3ccc(F)cc3)nc2C)c1`: the survival was inactive: 82%.

In the case of `N#Cc1ccc(NC(=O)COCc2cc(-c3ccco3)on2)cc1`, the survival is inactive: 84%.

As for `CCOC(=O)C1CCN(CCC(=O)Nc2ccccc2OC)CC1`, the survival was inactive: 74%.

Consider `COc1ccc(OC)c(C2CC(=O)Nc3c2c(=O)[nH]c2nc4ccccc4n32)c1` (stereo not drawn), for which the survival was inactive: 164%.

Take `COc1ccc(Cl)cc1N/C=C(/C#N)c1nc2ccccc2n1C`: the survival is inactive: 82%.

For `Cn1c(=O)c2c(nc(CN3CCN(c4ccccc4F)CC3)n2Cc2ccc(F)cc2)n(C)c1=O`, the survival was inactive: 90%.

Turning to `CCOc1ccc(N(Cc2ccccc2)C(=O)c2nc(SC)ncc2Cl)cc1`, the survival was inactive: 72%.

With `O=c1c(S(=O)(=O)c2ccccc2)cn(Cc2ccccc2)c2cc(N3CCCC3)c(F)cc12`, the survival was inactive: 69%.

Consider `COc1ccc(Cl)cc1N(C(C)=O)c1nc(C)cc(C)c1C#N`, for which the survival was inactive: 92%.

Take `Cc1nn(C)c2c1c(C(F)(F)F)cc(=O)n2Cc1ccc(Br)cc1F`: the survival was inactive: 94%.

Turning to `COc1cc(N)c(Cc2nccc3cc(OC)c(OC)cc23)cc1OC`, the survival is inactive: 94%.

`CCOc1ccccc1C(=O)NC1CCNCC1`: the survival is inactive: 91%.

On to `Cc1cccc(N2CCN(Cc3cc(=O)oc4cc(C)ccc34)CC2C)c1` (stereo not drawn), for which the survival was inactive: 77%.

Turning to `CC(C)c1ccc(CNc2nc(-c3ccco3)nn2S(=O)(=O)c2ccc(F)cc2)cc1`, the survival is inactive: 77%.

Consider `CCOC(=O)C1CCCN(S(=O)(=O)c2ccc(OC)cc2)C1` (stereo not drawn), for which the survival is inactive: 76%.

For the compound `CCn1c(SCC(N)=O)nc2ccccc21`, the survival was inactive: 79%.

For the compound `Cc1ccccc1N1CC(c2nnc(NC(=O)c3ccco3)s2)CC1=O` (stereo not drawn), the survival was inactive: 83%.

Regarding `CCn1c(C(NC(=O)c2ccc(C)cc2)C(C)C)n[nH]c1=S` (stereo not drawn), the survival is inactive: 80%.

On to `Cc1cc(C)cc(NC(=O)CN2CCC(NC(=O)Cc3ccccc3)CC2)c1`, for which the survival was inactive: 106%.

Regarding `Cc1sc2nc3n(c(=O)c2c1C)NC(=O)CC3`, the survival is inactive: 97%.

For the compound `Cc1cccc(NC(=O)N2CCC(N3CCN(Cc4ccccc4)C(=O)C3=O)CC2)c1C`, the survival is inactive: 66%.

With `CCCC1(C(=O)OC)NC(c2ccco2)C2C(=O)N(C)C(=O)C21` (stereo not drawn), the survival is inactive: 104%.

`CCOC(=O)c1ccccc1NC(=O)c1cc2ccc3cccnc3c2[nH]1`: the survival was inactive: 117%.

On to `Cc1oc2ncnc(N3CCOCC3)c2c1C(=O)NCCc1ccccc1`, for which the survival was inactive: 89%.

`CCOC(=O)COc1ccc(C)cc1C(=O)c1ccn2nc(-c3ccc(Cl)cc3)cc2n1`: the survival is inactive: 87%.

Turning to `CC(C)NC(=O)c1ccc2c(c1)nc1n2CCCCC1`, the survival is inactive: 91%.

As to `O=C(c1cc(-c2ccc(F)cc2)on1)N1CCN(c2ccc(F)cc2)CC1`, the survival is inactive: 67%.

With `CCc1ccc(N2CC(C(=O)NC(C)CC)CC2=O)cc1` (stereo not drawn), the survival is inactive: 80%.

As for `COc1ccccc1-c1coc2c(CN(C)C)c(O)ccc2c1=O`, the survival is inactive: 66%.

Consider `O=C(CN1C(=O)c2cccc3cccc1c23)Nc1ccccc1Br`, for which the survival is inactive: 63%.

Turning to `CCCCNS(=O)(=O)c1ccc2nc(-c3cccnc3)cc(C(=O)NC(C)C)c2c1`, the survival is inactive: 83%.

Regarding `CCCC1N=C2c3ccccc3N=C(SCC(=O)NCCc3ccc(Cl)cc3)N2C1=O` (stereo not drawn), the survival was inactive: 93%.

Take `CCCn1c(=O)c2sccc2n2c(CCCC(=O)N3CCN(c4cccc(Cl)c4)CC3)nnc12`: the survival was inactive: 79%.

As for `CC(=O)c1cccc(NC(=O)CN2C(=O)CC(c3ccc(C)cc3C)=Nc3ccccc32)c1`, the survival was inactive: 129%.

Turning to `O=C(/C=C/c1ccc(Cl)cc1)N1CCC(c2nc3ccccc3o2)CC1`, the survival was inactive: 107%.

In the case of `CCCCN(CC)CCCNC(=O)c1cn(CC)c2ccc(S(=O)(=O)N3CCc4ccccc4C3)cc2c1=O`, the survival is inactive: 79%.

Turning to `Cc1ccc(NS(=O)(=O)c2ccc3nc(-c4ccccc4)[nH]c3c2)c(Br)c1`, the survival is inactive: 79%.

For the compound `Cc1sc2ncn(CC(=O)N(C)c3ccc(C(C)C)cc3)c(=O)c2c1S(=O)(=O)N1CCC(C)CC1`, the survival was inactive: 81%.

Regarding `NC(=O)c1cc2c(ccc3ccccc32)oc1=O`, the survival was inactive: 96%.

On to `COc1ccc(-c2noc(CC(=O)Nc3cc(OC)ccc3OC)n2)cc1`, for which the survival is inactive: 63%.

`CC1CCC(NC(=O)C2(C)Cc3ccccc3C(=O)N2Cc2ccc(Cl)cc2)CC1` (stereo not drawn): the survival is inactive: 96%.

In the case of `O=C(Cn1cc(S(=O)(=O)Cc2ccccc2Cl)c2ccccc21)NCCc1ccccc1`, the survival is inactive: 66%.

With `CCOc1ccccc1CNS(=O)(=O)c1cc2c(cc1C)NC(=O)CO2`, the survival was inactive: 144%.

As for `Cc1ccccc1CNC(=O)CCC(=O)N1CCSc2ccccc21`, the survival is inactive: 49%.

For the compound `Cc1ccc(-c2cc3ncc4c(n3n2)-c2cc(Cl)ccc2OC4)cc1`, the survival is inactive: 87%.

Turning to `CCn1nnc2cc(C(=O)Nc3cc(C)ccc3C)ccc21`, the survival was inactive: 77%.

Regarding `COc1ccc(NC(=O)CC2C(=O)N(c3cccc(OC)c3)C(=O)N2CCC2=CCCCC2)cc1` (stereo not drawn), the survival was inactive: 112%.

Consider `CCOc1ccc(CC(=O)NCc2ccc3c(c2)CCN3C(=O)c2ccccc2)cc1OCC`, for which the survival is inactive: 72%.

In the case of `CCc1cc2c(cc3c(=O)n(CC(=O)N4CCN(c5cccc(C)c5C)CC4)nc(CC)n32)s1`, the survival was inactive: 84%.

As for `COc1ccc(CCNCc2c(C(=O)O)c(C)n(Cc3cccc(Cl)c3)c2C)c(OC)c1OC`, the survival was inactive: 95%.

Regarding `CCc1ccccc1NC(=O)CCC(=O)N1CC(C)Oc2ccc(C)cc21` (stereo not drawn), the survival is inactive: 62%.

With `O=C(Cn1cc(C(=O)c2ccccc2)c(=O)c2cc3c(cc21)OCCO3)Nc1ccc(F)c(F)c1`, the survival is inactive: 121%.

In the case of `Cc1nc2cc(N3CCN(C)CC3)c(NC(=O)C(C)(C)C)cc2c(=O)n1Cc1ccccc1`, the survival was inactive: 77%.

`Cc1ccc(C)c(N2CCN(S(=O)(=O)c3ccc(C(=O)N(C)C)s3)CC2)c1`: the survival was inactive: 60%.

For `COc1ccc(Cl)cc1NC(=O)c1cc(S(=O)(=O)N(C)Cc2ccccc2)ccc1F`, the survival was inactive: 74%.

In the case of `CCOc1ccc(-c2cc(C(=O)NCCc3ccc(OC)c(OC)c3)c3c(-c4ccc(F)cc4)[nH]nc3n2)cc1`, the survival was inactive: 85%.

Turning to `COc1cccc(-c2nc(SCC(=O)Nc3ccc4c(c3)OCCO4)c(-c3ccc(C)cc3)[nH]2)c1`, the survival is inactive: 62%.

With `O=C1OCCC1Sc1nc2ccccc2n1Cc1ccccc1` (stereo not drawn), the survival was active: 73%.
